Assay results taken from PubChem BioAssay AID686978 (National Center for Advancing Translational Sciences (NCATS), 2013).
Among all 420,000 compounds or so, about 64,000 (15%) were called active. The inconclusive results got no clear call from the source; some entries with a clear call stand among them for comparison. The call rests on the fitted dose curve; in most records, active means well fitted inhibition curve with a large enough effect; inconclusive means small, poorly fitted or top-dose-only effect; inactive means flat fitted curve, though single readings scatter. No potency is given beside an inconclusive call; the fits are too rough.

Test: qHTS for Inhibitors of human tyrosyl-DNA phosphodiesterase 1 (TDP1): qHTS in cells in absence of CPT; further: nearly all actives have a fitted effect of over 55% in size
Settings: DT40 Tdp1-/- hTDP1 cells, no CPT, ATP luminescence, 48 h; activity change, negative = growth inhibition: at 46.2 µM (top of the series) unless noted
Method in brief: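 Camptothecin absent (DMSO only). Human TDP1-complemented DT40 knockout cells, 400 cells/well, 37 °C for minimum 48 hr; ATP measured via CellTiter-Glo, 30 min dark incubation, luminescence.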
On the % scale 0 is the no-effect control and ±100 the full control effect; potency means the concentration at half of the fitted maximal effect; tags describe the fitted curve by direction and shape.

SMILES | Potency | activity change, negative = growth inhibition
CCCCOc1ccccc1NC(=O)c1ccco1 | inconclusive [inhibitor, single point] | –
O=C(Nc1nc2c(c(=O)[nH]1)CCCC2)C1CC1 | inconclusive [inhibitor, single point] | –
CCC(Sc1ccc(C(=O)O)cc1)C(=O)O (configuration not stated) | inactive | –
CC(C)c1ccc(OCC(=O)Nc2c3c(nn2C(C)(C)C)CS(=O)(=O)C3)cc1 | inconclusive [inhibitor, single point] | –
COc1ccc(C(=O)Nc2cccc(OC(=O)c3ccc(C)c(C)c3)c2)cc1 | active: 23.1 µM | –
Cc1ccc2cc(CCNC(=O)c3cc4ccccc4o3)c(=O)[nH]c2c1C | inconclusive [inhibitor, single point] | –
C/C(N)=C(/C#N)C(=O)COC(=O)c1ccccc1Cc1ccccc1 | inconclusive [inhibitor, single point] | –
COc1ccc(-n2c(-c3ccc(Cl)cc3)c[nH]c2=S)cc1 | inactive | –
Cc1ccc(NC(=O)COC(=O)c2ccccc2OCC(=O)N(C)C)cc1 | inconclusive [inhibitor, single point] | –
N#CC(C#N)=Cc1ccc(-c2ccc(S(=O)(=O)N=C(N)N)cc2)o1 | inconclusive [inhibitor, single point] | –
CNC(=O)c1cc(-c2cccs2)on1 | inconclusive [inhibitor, partial curve] | –
COc1ccc(C=NNC(=O)c2cc(C)oc2C)cc1O | active: 16.4 µM | –
C=C(C)Cn1c2ccc(NC(=O)NCc3ccccc3)cc2c(=O)n1C | inactive | –
Nc1c(N(CCC2=CCCCC2)C(=O)C2CC2)c(=O)[nH]c(=O)n1Cc1ccccc1 | inactive | –
Cc1ccc(NC(=O)CC2Nc3ccccc3NC2=O)cc1Cl (configuration not stated) | inconclusive [inhibitor, single point] | –
COc1ccc(CNCCC(c2ccc(OC(C)C)cc2)c2ccccc2OC)cc1 (configuration not stated) | active: 11.6 µM | –
CCCCOc1ccc(C(=O)NCC(=O)NNC(=O)C2COc3ccccc3O2)cc1 (configuration not stated) | inactive | –
Cc1cc2c(sc3c(C)ccc(C)c32)c(C)n1 | inconclusive [inhibitor, partial curve, poor fit] | –
COCCN(C(=O)CSc1nc(-c2ccccc2)cn1N)c1c(N)n(Cc2ccccc2)c(=O)[nH]c1=O | inactive | –
Nc1nnc(CC2=CCCCC2)s1 | inactive | –
COc1cc(OC)c2c(-c3cccc(-c4ccc(O)cc4)c3)cc(=O)oc2c1 | active: 16.4 µM | –
COc1cccc(OC)c1C(=O)NCc1ccco1 | inactive | –
CC1=C(c2ccc(F)cc2)S(=O)(=O)NC1=NCc1ccccc1Cl | inactive | –
CC(C)(C)C1CCC(OC(=O)c2ccncc2)CC1 (configuration not stated) | inactive | –
CC(C)(C)C(=O)Nc1ccc2nc(SCc3ccccc3)sc2c1 | active: 20.6 µM | –
COc1cccc(CNC(=O)COC(=O)/C=C/c2ccc(SC)cc2)c1 | – | inconclusive: -31.1% [inhibitor]

SMILES | Potency | activity change, negative = growth inhibition
CC(=O)N1CCN(c2ccc(NC(=S)NC(=O)c3ccc(C)c([N+](=O)[O-])c3)cc2)CC1 | inconclusive [inhibitor, partial curve] | –
COC(=O)c1ccccc1NC(=O)Cn1cc2c(n1)CCC(C)C2 (configuration not stated) | inconclusive [inhibitor, partial curve] | –
CC(C)(C)n1c(O)c2n(c1=O)Cc1ccccc1N=C2c1ccccc1 | inconclusive [inhibitor, single point] | –
O=C(Nc1ccncc1)c1cc(C2CCCCN2C(=O)CCc2ccccc2)on1 (configuration not stated) | inconclusive [inhibitor, full curve] | –
CC1CN(Cc2nc3c(c(=O)n(C)c(=O)n3C)n2CCCc2ccccc2)CC(C)O1 (configuration not stated) | inconclusive [inhibitor, single point] | –
CN(C(=O)CSc1cccc[n+]1[O-])C1CCCCC1 | inconclusive [inhibitor, single point] | –
CCOC1(C)OCC(=O)[C@]2(CCC3C4CCC5=CC(=O)C=CC5(C)C4C(=O)CC32C)O1 (some centres not stated) | inconclusive [inhibitor, single point] | –
CC(=O)Nc1ccc(NC(=O)COC(=O)C2(c3ccc(Cl)cc3)CCCC2)cc1 | inconclusive [inhibitor, single point] | –
CC(=O)c1sccc1NC(=O)c1ccccc1C(=O)O | inactive | –
O=C(NCC1Cc2cc(F)cc(-c3cccnc3)c2O1)c1cnn(-c2ccccc2)c1 (configuration not stated) | inconclusive [inhibitor, single point] | –
CCOC(=O)C(=O)NN=C(c1ccccc1)c1ccccc1 | inactive | –
O=c1[nH]c(-[n+]2ccc3ccccc3c2)c(/C=N/N=C(\[O-])c2ccccc2)s1 | inactive | –
CCC(=O)N1CCc2cc(S(=O)(=O)NC(Cc3ccccc3)C(=O)NCc3cccc(OC)c3)ccc21 (configuration not stated) | inconclusive [inhibitor, single point] | –
CCCCCCCCCCCCN1[C@@H](CC(C)=O)c2cc(F)cc(F)c2S1(=O)=O | inconclusive [inhibitor, single point] | –
CCC(C)(C)NC(=O)CN(C(=O)c1snc(C(N)=O)c1N)c1ccc2nc(C)sc2c1 | inconclusive [inhibitor, single point] | –
COc1ccccc1N1CCN(/N=C\c2sccc2C)CC1 | inactive | –
Cc1ccccc1C(=O)NC(=O)Nc1ccc(-n2nc(C(F)(F)F)cc2C(F)(F)F)cc1 | inconclusive [inhibitor, partial curve] | –
CCCOc1cc(NCc2ccccc2)c2ncn(C(C)C)c2c1 | inconclusive [inhibitor, single point] | –
CSCC[C@H](NC(=O)c1cccc(S(=O)(=O)N2CCCCC2)c1)c1nc2ccccc2[nH]1 | inconclusive [inhibitor, single point] | –
Cc1cc(F)ccc1S(=O)(=O)N1CCCOC1CNC(=O)C(=O)NC1CCCCC1 (configuration not stated) | inactive | –
COc1ccc(CC(=O)c2ccc(O)cc2O)cc1 | inconclusive [inhibitor, partial curve, poor fit] | –
O=C(/C=C/NNC(=O)c1ccccc1)c1ccc(Br)cc1 | active: 4.61 µM | –
Cc1cnc(CN2CCc3c([nH]c4ccccc34)C2CC(C)C)[nH]1 (configuration not stated) | inconclusive [inhibitor, single point] | –
CCCN(CCC)c1cc(C)nc2nc(-c3ccc(Cl)cc3)nn12 | inactive | –
COc1ccc(CC2(CO)CCN(Cc3cccc(OC)c3OC)CC2)cc1 | inactive | –
CCCCc1nc2sc3c(=O)n(N)cnc3c2c2c1CCCC2 | – | inconclusive: -30.3% [inhibitor]

SMILES | Potency | activity change, negative = growth inhibition
COc1ccc(-c2ccc(C#N)c(SCC(=O)Nc3sc4c(c3C#N)CCC4)n2)cc1 | inconclusive [inhibitor, single point] | –
O=C(CCN1c2ccccc2Sc2ccccc21)Nc1ccccc1 | inconclusive [inhibitor, partial curve, poor fit] | –
CCC(C)(C)NC(=O)C(c1ccccc1)N(Cc1cccnc1)C(=O)c1csnn1 (configuration not stated) | inactive | –
Cc1ccc(C(=O)NCC(=O)OCC(=O)c2ccc3ccccc3c2)cc1 | inactive | –
COc1ccccc1CNC(=O)CSc1ccc(C)cc1 | inconclusive [inhibitor, single point] | –
Cc1ccc(C(=O)CSc2nc(-c3ccccc3)nc3c2CCCC3)cc1C | inactive | –
CCN(CC)S(=O)(=O)c1cccc(-c2nnc(SC(C)C#N)n2Cc2ccccc2)c1 (configuration not stated) | active: 18.4 µM | –
COc1ccc(/C=C2\CCc3ccccc3C2=O)cc1Cn1nc(C)cc1C | inconclusive [inhibitor, single point] | –
O=C(O)c1cc(-c2ccc(Br)s2)nc2ccccc12 | inactive | –
COc1ccccc1CNc1ccnc(-c2ccc(N(C)C)cc2)n1 | inconclusive [inhibitor, single point] | –
O=C(Nc1cccc(S(=O)(=O)N2CCCCC2)c1)c1ccc(OCC2CCCO2)cc1 (configuration not stated) | active: 16.4 µM | –
O=C(NCc1ccco1)c1ccc(-c2ccc(F)c(F)c2)c2ccoc12 | active: 18.4 µM | –
CC(=O)c1ccc(NC(=O)CC2Sc3ccccc3NC2=O)cc1 (configuration not stated) | active: 13 µM | –
COc1ccc(-c2csc3ncnc(Nc4cccc(F)c4)c23)cc1 | inactive | –
COCCCn1c2nc3ccccc3nc2c2c(=O)n(CC3CCCO3)cnc21 (configuration not stated) | inconclusive [inhibitor, partial curve] | –
C=CCn1c(Cc2cccs2)nnc1SCC(=O)NC1CC1 | inactive | –
CCN(c1ccc(NC(=O)COC(=O)/C=C/c2ccco2)cc1)C(C)C | active: 18.4 µM | –
Cc1ccccc1C1(CC(=O)N2CC3CC4CC(C3)CC2C4)CC(=O)N(Cc2cccnc2)C1=O (configuration not stated) | inconclusive [inhibitor, partial curve] | –
CC(CCc1ccccc1)NC(=O)c1ccc(F)cc1 (configuration not stated) | inactive | –
CC1=C(C(=O)Nc2ccc(C)cc2C)C(c2cccs2)n2nc(SCc3ccc(Cl)cc3)nc2N1 (configuration not stated) | active: 11.6 µM | –
Cc1nc2ccc(C(=O)NC(C)(C)C)cn2c1N(C)C(=O)CCc1ccccc1 | inactive | –
Cc1csc(=O)n1CCC(=O)OCC(=O)NNC(=O)c1ccc(Br)cc1 | inactive | –
O=C(N/N=C/c1c(Cl)cccc1Cl)c1n[nH]c2c1CCCC2 | active: 11.6 µM | –
Cc1ccc(S(=O)(=O)N2CCOCC2)cc1N/N=C(\C#N)c1nc2ccccc2[nH]1 | active: 25.9 µM | –
N/C(=N\OC(=O)/C=C/c1ccc(Br)cc1)c1ccccn1 | inconclusive [inhibitor, single point] | –
